Hit rate of the full screen: of about 360,000 compounds, about 17,000 (4.7%) were called active. This list was built around the results that the source calls inconclusive (neither active nor inactive); the mix of calls is not that of the screen. Rule as the data show it: active = activity change below about -50%; inconclusive = mostly about -30% to -49%; inactive = weaker than that.
assay: qHTS for Inhibitors of Inflammasome Signaling: IL-1-beta AlphaLISA Primary Screen; conditions: THP-1 LPS/ATP IL-1B secretion, 16 h; at 57.5 µM, hits give low values
How it was run: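 Secreted IL-1B measured by AlphaLISA bead assay after 16 h compound exposure of THP-1 cells; compounds (final up to 57.5 uM) added 1 h before LPS (250 ng/mL) and ATP (1.25 mM) stimulation; lower signal means less secretion.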
% is scaled to controls: 0 for no effect and ±100 for the full control effect.

SMILES | activity change
COc1ccc(CCNc2oc(Cc3cccc4ccccc34)nc2C#N)cc1OC | inconclusive: -38.9%
Cc1nc(N2CCN(c3ccccn3)CC2)c2c(C)c(C(=O)N3CCN(c4ccccc4F)CC3)sc2n1 | inconclusive: -34.1%
CCN(CC)S(=O)(=O)c1ccc2c(c1)c(=O)c(C(=O)NCCN(C)CCc1ccccc1)cn2C | inconclusive: -43.3%
NC(COCc1ccccc1)c1csc(NC(=O)Nc2cccc(C(F)(F)F)c2)n1 (centres undefined) | active: -54.8%
Cc1ccc(S(=O)(=O)NNC(=O)c2cnn(-c3ccc(Cl)cc3)c2C(F)(F)F)cc1 | inconclusive: -33.3%
CCN(CC(=O)Nc1cc(Cl)ccc1C)C(=O)c1cc(S(=O)(=O)N2CCCCCC2)ccc1OC | inconclusive: -39.6%
C[C@H](CO)N1C[C@H](C)[C@@H](CN(C)C(=O)Nc2ccc3c(c2)OCO3)Oc2ccc(NC(=O)CCC(F)(F)F)cc2C1=O | inactive: 3.48%
O=C(Cc1ccc(S(=O)(=O)N2CCOCC2)s1)N1CCN(S(=O)(=O)c2ccc(Cl)cc2)CC1 | inconclusive: -37.6%
O=C(c1cc2c(c(-c3cccc(-c4ccncc4)c3)n1)[C@@H](CCO)N(C(=O)c1ccc3c(c1)OCO3)C2)N1CCOCC1 | inactive: -4.62%
Cc1nc2ccccc2n1/N=C/c1ccc([N+](=O)[O-])s1 | inconclusive: -44.4%
CN1CCN(Cc2nc3ccccc3c(=O)n2Cc2nc(-c3cccc([N+](=O)[O-])c3)cs2)CC1 | active: -78.3%
CN(Cc1cn(-c2ccccc2)nc1-c1ccc2c(c1)OCO2)Cc1nccn1C | inconclusive: -38.6%
CC1(C(=O)Nc2ccc3c(c2)OCCO3)CN(S(C)(=O)=O)CC(=O)N1CCCn1ccnc1 (centres undefined) | inconclusive: -35.2%
O=C(NN=Cc1ccc(N2CCOCC2)s1)c1ccc([N+](=O)[O-])cc1 | inconclusive: -31.4%
COc1ccc(NC(=S)Nc2ncccc2C)c(OC)c1 | active: -77.8%
O=C(NCCN1CCOCC1)c1ccc2c(c1)N(Cc1cccc(F)c1)C(=O)c1ccccc1S2 | inconclusive: -36.3%
CN(CC#CCC(c1ccccc1)c1ccccc1)C(C)(C)C | inconclusive: -33.6%
CC(C)=CCCC(C)c1cc(C(=O)NCCc2ccc(O)cc2)c(N)s1 (centres undefined) | inconclusive: -40%
CCOC(=O)c1nc(Nc2ccc(N3CCOCC3)cc2)c2ccccc2n1 | active: -84.3%
Cc1ccc(NC(=S)C2=C(O)c3ccccc3N(C)S2(=O)=O)cc1 | inactive: 44.2%
Cc1ccc2c(c1)NC(=O)c1cccnc1N2 | inconclusive: -33.8%

SMILES | activity change
CCOC(=O)c1c(NC(=O)CCCN2CCOCC2)sc2c1CC(C)(C)OC2 | inconclusive: -47%
Nc1c(C(=O)NCc2ccco2)c2nc3ccccc3nc2n1CCc1ccccc1 | active: -56.7%
Cc1ccc(NC(=O)Cc2ccccc2F)cc1S(=O)(=O)N1CCCCCC1 | inactive: -3.61%
COc1ccc(CCN(C)CC(O)COc2c(C)ccc(C)c2C)cc1OC (centres undefined) | inconclusive: -35.7%
COc1ccc(-c2cc(-c3ccc(Cl)cc3)n[nH]2)c(O)c1 | inconclusive: -30.3%
Cc1ccc2sc(N(CCCN(C)C)C(=O)c3ccc(S(=O)(=O)N4CCOCC4)cc3)nc2c1C | inconclusive: -33.9%
COc1ccc(C[C@H]2CN3C(=NC[C@@H]3Cc3ccccc3)N2CCNC(=O)c2ccc(C)c(Br)c2)cc1 | active: -51.8%
COc1ccc(C(=O)NC2CC3CCCC(C2)N3Cc2ccccc2)cc1 (centres undefined) | inconclusive: -40.3%
CN1CCN(Cc2cn[nH]c2-c2ccc(F)cc2F)[C@@H](c2ccccc2)C1 | inconclusive: -42.3%
CCSc1nnc(C)n1-c1ccc(C(=O)O)cc1 | inactive: 14%
Cc1ccccc1Oc1nc2c(C)cccn2c(=O)c1/C=C(\C#N)C(=O)Nc1c(C)n(C)n(-c2ccccc2)c1=O | inconclusive: -45.7%
Cc1ccc(-c2cc(-c3ccccc3)c3c(N)c(S(C)(=O)=O)sc3n2)cc1 | inconclusive: -49.7%
O=S(=O)(c1ccccc1)N1CC2CC(Br)C(Br)CC21 (centres undefined) | inactive: -22.7%
Cn1nnnc1SC1CC(=O)N(c2ccccc2)C1=O (centres undefined) | inactive: 0%
c1ccc(-c2ccc3c(c2)c2c4n3CCN=C4CCC2)cc1 | inconclusive: -36.4%
Cc1[nH]n(-c2ccccc2)c(=S)c1C=NCCCN=Cc1c(C)[nH]n(-c2ccccc2)c1=S | active: -96.9%
O=[N+]([O-])c1ccc(NN=Cc2cccc([N+](=O)[O-])c2)cc1 | inconclusive: -31.3%
O=C(Nc1ccc(Cl)cc1)C1CCCN(c2cnccn2)C1 (centres undefined) | inactive: -16.5%
c1ccc(CN2CCC(Nc3nc(-c4cccs4)nc4ccccc34)CC2)cc1 | active: -64.2%
Cc1cc(=O)[nH]c(SCC(=O)c2ccccc2)c1C#N | inactive: -2.17%
CCCCNC(=O)CCc1c(C)nc2nc(-c3cc(OC)cc(OC)c3)nn2c1C | inactive: -7.77%

SMILES | activity change
O=C(/C=C/c1ccc(Cl)cc1)NCCc1ccccc1 | inconclusive: -36.6%
CCOC(=O)N1CCN(S(=O)(=O)N2CCCC(C(=O)NCCCN3CCCCC3CC)C2)CC1 (centres undefined) | inactive: 12.7%
CCCc1cc(=O)oc2c3c(cc(OCC(=O)NCCN4CCOCC4)c12)OC(C)(C)CC3 | inconclusive: -48.9%
COC(=O)C1=CN(c2ccc(F)cc2)C=C(C(=O)OC)C1c1cccc(Br)c1 | inconclusive: -41.9%
O=C(CSc1ccc2ccccc2n1)N1CCC(c2noc3ccc(F)cc23)CC1 | inconclusive: -45.3%
COc1ccc(-c2nc3c(n2O)CCc2c-3no[n+]2[O-])cc1 | inconclusive: -30.4%
COc1ccc(-c2csc(NC(C)c3nc4cc(Cl)c(Cl)cc4n3CCOCCO)n2)cc1 (centres undefined) | inconclusive: -42%
NC(=O)c1ccccc1NC(=O)c1ccccc1Cl | inactive: -1.82%
COC(=O)c1c(NC(=O)c2cccc(S(=O)(=O)N3CCN(C)CC3)c2)sc(C)c1C | active: -76.8%
C/C(=N\Nc1nncc2ccccc12)c1ccc(C(C)(C)C)cc1 | inconclusive: -30.2%
COc1ccccc1N1CCN(C(c2ccc(F)cc2)c2nnnn2C(C)C)CC1 (centres undefined) | inactive: -7.62%
CCc1ccc(-c2n[nH]nc2C2=CC(=O)C[C@H](c3ccc(F)cc3)C2)cc1 | inactive: -28.5%
O=C(Nc1ccc(Oc2cccc3ccccc23)cc1)c1ccco1 | inconclusive: -44.6%
CC(=O)n1c2c(c3ccccc31)OC(N)=C(C#N)C2c1ccc(C(C)C)cc1 (centres undefined) | inconclusive: -41.4%
Cc1nn(-c2ccccc2)nc1CNC(=O)C1CC1 | inactive: 6.39%
CCOC(=O)C1CCN(S(=O)(=O)c2ccc(-c3cc(C(F)(F)F)n(C)n3)s2)CC1 | inactive: 28.4%
COc1ccc(C(=O)CC(=O)C(=O)NCCc2cccc(C)c2)cc1 | inactive: -7.06%
Cc1ccc(OCC(=O)N/N=C/c2cccn2C)cc1C | inconclusive: -30.6%
Cc1nn(Cc2ccc(Cl)c(Cl)c2)c(C)c1NC(=O)c1cc(-c2ccc3c(c2)OCO3)on1 | inactive: -13%
CCn1cc(S(=O)(=O)CC(=O)Nc2ccc(C)cc2)c2ccccc21 | inactive: -15.1%
Cc1cc(Br)ccc1SCC(=O)OCC(O)=C(C#N)c1nc2ccccc2[nH]1 | active: -102%

SMILES | activity change
COc1ccccc1-c1nnc(NC(=O)c2ccc(S(=O)(=O)N(C)Cc3ccccc3)cc2)o1 | inactive: 33.7%
O=C(NCCCN1CCCC1=O)Nc1ccccc1F | inactive: -6.71%
Cn1nc(C(F)(F)F)c2cc(C(=O)Nc3ccc(C(F)(F)F)cc3)sc21 | inconclusive: -31%
CC(=O)Nc1nnc(-c2ccc3c(c2)CCCC3)o1 | inactive: -8.74%
CCN(CC)c1ccc(C(=O)n2cnc3ccccc32)cc1 | inconclusive: -30.8%
COc1ccc(S(=O)(=O)N2CCOCC2)cc1NC(=O)CCNC(=O)c1ccc([N+](=O)[O-])cc1 | inactive: -20%
Cc1cccc2cc(CN(C(=O)c3cnccn3)C3CCCCC3)c(Cl)nc12 | inconclusive: -38.9%
Cc1cc(C)c2cc(C#N)c(NCCCNC(=O)c3cccnc3)nc2c1 | inconclusive: -34.3%
CCCCC(=O)N(C)c1c(C)nc2ccc(C(=O)N(C)Cc3ccco3)cn12 | inactive: 26.3%
Cc1cc(C(=O)OCC(=O)N(C)c2c(N)n(Cc3ccccc3)c(=O)[nH]c2=O)c(C)n1-c1ccccc1 | active: -54.9%
O=C(COc1ccc(CO)cc1Cl)Nc1ccc(F)cc1 | inconclusive: -34.7%
O=C(CN1C(=O)NC2(CCCC2)C1=O)Nc1cc(C(F)(F)F)ccc1N1CCCCC1 | active: -72%
O=C(NC1CCCCCC1)C1CCN(S(=O)(=O)c2c(Cl)cccc2Cl)CC1 | inactive: 0%
CCCn1cnc2cc(NCc3ccc(Br)cc3)ccc21 | active: -83.3%
Cc1cc(C)n(-c2ccc(C(=O)NCc3cccs3)cc2)n1 | inconclusive: -39.3%
O=C1/C(=C\c2ccc([N+](=O)[O-])cc2)CCc2ccccc21 | inconclusive: -47%
OC(c1cc(-c2ccc(Cl)cc2)nc2ccccc12)C1CCCCN1 (centres undefined) | active: -78.2%
CCCn1cc(S(=O)(=O)c2ccc(OC)cc2)c(=O)c2cc(OCC)ccc21 | inconclusive: -48%
Cc1ccc(NC(C)C(=O)N/N=C/c2ccc([N+](=O)[O-])s2)cc1 (centres undefined) | inconclusive: -34.5%
CN(Cc1ccc(Cl)cc1Cl)C(=O)c1cccc(S(=O)(=O)NCc2ccccc2)c1 | inconclusive: -40.7%
COc1cc2c(cc1OC)C(C)N(C(=O)Cn1ncc3c1-c1cc(C)ccc1OC3)CC2 (centres undefined) | inconclusive: -34.7%
